Results reported in PubChem BioAssay AID1240 (Sanford-Burnham Center for Chemical Genomics, 2008).
The whole screen tested about 50,000 compounds, of which about 800 (1.6%) showed an effect of 50% or more. The list shows a part of the results.

Each molecule was assayed against Bcl-2-like protein 10 (Homo sapiens) (UniProt Q9HD36) (assay: Phenotype converters, Bcl-B/TR3 peptide binding displacement, primary biochemical FP (AID 1240;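 further: 0% = Bcl-B with tracer peptide and DMSO and 100% = tracer peptide lacking Bcl-B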)). Conditions: GST-Bcl-B / FITC-TR3 peptide fluorescence polarization; stronger effect = higher value; compound at 3.75 mg/L.
UniProt Q9HD36, sequence (Q9HD36 whole entry, looked up): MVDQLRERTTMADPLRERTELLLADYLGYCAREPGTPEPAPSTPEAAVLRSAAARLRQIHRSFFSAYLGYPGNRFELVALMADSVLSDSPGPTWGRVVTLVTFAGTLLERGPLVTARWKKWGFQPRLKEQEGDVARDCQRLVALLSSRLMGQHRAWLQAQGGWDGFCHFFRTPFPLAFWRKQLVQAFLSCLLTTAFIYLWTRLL
Cc1ccc(-c2ccccc2)n1-c1ccc(O)cc1 was tested, and the displacement was 8.7%. In the case of O=[N+]([O-])c1ccc(NS(=O)(=O)c2cccs2)cc1, the displacement is reported as 6.5%. Cc1ccc(C)c(S(=O)(=O)Nc2ccc(O)c3ccccc23)c1 gave a displacement of 11.4%. O=C(CSc1ncccc1C(=O)O)c1ccc(Cl)cc1 was tested, and the displacement was -5.1%. With O=S(=O)(c1ccc(Cl)cc1)N1CCN(Cc2ccccc2C(F)(F)F)CC1 the displacement was -8.1%. In the case of CCNC(=O)/C=C/c1cn(-c2ccccc2)nc1-c1ccccc1, the displacement is reported as 9.4%. With CCOC(=O)c1ccccc1NS(=O)(=O)c1ccc(Cl)cc1 the displacement was 5.4%. With NC(=O)c1cc2n(n1)C(C(F)(F)F)CC(c1ccc(Cl)cc1)N2 (stereo unspecified) the displacement was 5.6%. Molecule C=CCNC(=S)NNC(=O)c1ccccc1Br has a displacement of -10.5%. CCN(CC)c1ccc(/C=N/NC(=O)c2cc(-c3ccc(Cl)cc3)n[nH]2)cc1 gave a displacement of -12.2%. CCOC(=O)c1c(CN(CC)CC)n(C)c2cc(Br)c(OC)cc12 was tested, and the displacement was -12.1%. For Cc1cc(I)ccc1NC(=O)CCCOc1ccc(Cl)cc1Cl, the displacement was -2.8%. For CCCOC(=O)c1cccc(NC(=O)c2cccs2)c1, the displacement was -5.3%. With CC1CCN(C2=NC(=O)/C(=C/c3ccc(O)cc3)S2)CC1 the displacement was -32.4%. With O=C1C2C3C=CC(C2C(=O)N1Cc1ccc(F)cc1)C1C(=O)N(Cc2ccc(F)cc2)C(=O)C31 (stereo unspecified) the displacement was -8.3%. For O=S(=O)(N/N=C/c1ccc2ccccc2c1)c1ccc(Cl)cc1, the displacement was -6.7%. COc1ccc(CCNC(=O)COc2cc(C)c(Cl)c(C)c2)cc1OC gave a displacement of -3.1%. Molecule C/C(=N\NC(=O)c1ccc(Br)cc1)c1cccnc1 has a displacement of 2.5%. C(=N\Nc1nc(N2CCOCC2)nc(N2CCOCC2)n1)/c1ccccc1 gave a displacement of 5.4%. With Cc1cc(=O)n2[nH]c(-c3cccc(F)c3)cc2n1 the displacement was 13.6%. With C=CCOc1ccc(/C=C2\C(=O)NC(=O)N(c3ccc(Cl)cc3)C2=O)cc1OCC the displacement was -4%. In the case of CN=C(NS(=O)(=O)c1ccccc1)c1ccccc1, the displacement is reported as 11.1%. With COc1ccc(NC(=S)NC(=O)c2ccc(OC)cc2)cc1 the displacement was 13.3%. With CCCOC(=O)c1ccc(NC(=O)c2ccncc2)cc1 the displacement was -2.7%. In the case of CCC(Oc1ccccc1)C(=O)Nc1sc2c(c1C(=O)OC)CCC(C)C2 (stereo unspecified), the displacement is reported as -6.5%. Cc1ccc(C(=O)n2c(C)nc3ccccc32)cc1C was tested, and the displacement was -8.5%. In the case of CNC(=S)N(CCc1ccc(OC)c(OC)c1)C1CC(=O)N(c2ccccc2)C1=O (stereo unspecified), the displacement is reported as -4.7%. CC(=O)N/N=C/c1nc2ccccc2[nH]1 showed a displacement of -11.6%. For CCCOC(=O)c1c(NC(=O)Cn2nc([N+](=O)[O-])cc2C)sc2c1CCCC2, the displacement was -7.8%. O=C1CC(NCc2ccc3c(c2)OCO3)C(=O)N1c1cccc(Br)c1 (stereo unspecified) showed a displacement of -7.1%. With CCN1C(=O)/C(=C\c2ccc(-c3ccc([N+](=O)[O-])cc3Br)o2)SC1=S the displacement was 1.9%. Work on Cc1cccc(-n2c(SCc3ccccc3)nc3ccccc3c2=O)c1 yielded a displacement of -9.7%. In the case of CC1CCCC(C)N1CC(O)COc1ccc(N=Cc2ccccc2O)cc1 (stereo unspecified), the displacement is reported as -1.9%. In the case of CC(=O)c1ccc(NC(=S)NC(NC(=O)CC(C)C)C(Cl)(Cl)Cl)cc1 (stereo unspecified), the displacement is reported as -27.7%. For O=C(Cc1ccccc1)Nc1ccc(C(=O)OC2CCCCC2)cc1, the displacement was -9.8%. With COc1cccc(-n2c(O)c(C=NCc3ccccc3F)c(=O)[nH]c2=O)c1 the displacement was 9.2%. In the case of CCc1ccc(S(=O)(=O)Nc2cc3c(C(=O)O)c(C)oc3c3ccccc23)cc1, the displacement is reported as 17.8%. For Cc1ccc(NC(=O)Cc2ccc(Br)cc2)cc1C, the displacement was -6.9%. For COc1cc2c(cc1NC(=O)c1ccc(F)cc1)oc1ccccc12, the displacement was -9.2%. Fc1ccc(-c2noc(-c3ccc(F)cc3)n2)cc1 was tested, and the displacement was -12.2%. Work on Cc1ccc(C(C)C)c(OCC(=O)N2CCN(c3ccc([N+](=O)[O-])cc3)CC2)c1 yielded a displacement of 7.9%. Work on Cc1sc2nc(N)c(C#N)c(-c3ccccc3)c2c1C yielded a displacement of 3.9%. For CC(C)=C(NC(=O)c1ccccc1)C(=O)NCc1ccccc1Cl, the displacement was -1.5%. Molecule CCOc1ccccc1N1CCN(S(=O)(=O)c2ccc(OC)cc2)CC1 has a displacement of -12.8%. COc1ccc(/C=C/C(=O)Nc2ccccc2OC)cc1Br showed a displacement of 13.6%. Cc1ccc(OCCSc2nnnn2-c2ccccc2)cc1 showed a displacement of 4.7%. O=C(COc1ccc2ccccc2c1)Nc1ccc(-c2nc3cccnc3o2)cc1 gave a displacement of 0.7%. Molecule COc1ccc(-c2csc3nc[nH]c(=O)c23)cc1 has a displacement of -2.4%. CCCCCCCCc1nnc(NC(=O)C(C)(C)C)s1 showed a displacement of -10.4%. Work on COc1cc(C=O)cc(Br)c1OCc1c(C)no[n+]1[O-] yielded a displacement of -5.9%. Molecule COc1cccc(N2C(=O)NC(=O)/C(=C/c3c(OC)ccc4ccccc34)C2=O)c1 has a displacement of -10.7%. For CC1=C(C(=O)Nc2cccc(Cl)c2)C(c2ccc(F)cc2)NC(=O)N1 (stereo unspecified), the displacement was 2.5%. O=C1CSC(=S)N1/N=C/c1c(Cl)cccc1Cl showed a displacement of -18.9%. For COc1ccc2oc(=O)c(-c3csc(NC(=O)/C=C\C(=O)O)n3)cc2c1, the displacement was -25.1%. COc1cccc(N(CC(=O)Nc2cc(Cl)cc(Cl)c2)S(=O)(=O)c2ccccc2)c1 gave a displacement of -5.1%. Molecule CCOc1ccc(N(CC(=O)Nc2ccccc2C)S(C)(=O)=O)cc1 has a displacement of 2.3%. Work on CSc1ccc(/C=N/NC(=O)/C(=C\c2ccc3c(c2)OCO3)NC(=O)c2ccccc2)cc1 yielded a displacement of -8.9%. With CN1CCN(CCOCCOc2cc(Cl)ccc2Cl)CC1 the displacement was -13.1%. O=C1C(=O)N(Cc2ccccc2)C(c2ccc(F)cc2)/C1=C(/O)c1ccccc1 (stereo unspecified) showed a displacement of 3.9%. With O=[N+]([O-])c1cccc(S(=O)(=O)NCc2ccccc2)c1 the displacement was -3.3%. O=C(Nc1ccc(S(=O)(=O)Nc2nccs2)cc1)c1ccc(F)cc1 showed a displacement of 1.9%. Molecule CSc1nnc2c(n1)OC(c1ccc(OCc3ccccc3)cc1)Nc1ccccc1-2 (stereo unspecified) has a displacement of 7.4%. With CCOC(=O)c1c(NC(=O)c2cnccn2)sc2c1CCCC2 the displacement was 4.2%. For COc1ccc(-c2cc(=O)n3[nH]c(-c4ccc(Br)cc4)cc3n2)cc1, the displacement was 2.2%. With O=c1oc2ccccc2cc1-c1nn(-c2ccccc2)cc1/C=N/O the displacement was 53%. Cc1ccc(NC(=O)c2c(-c3ccccc3Cl)noc2C)nc1 gave a displacement of 4.6%. Work on NC(N)=N/N=C/c1ccccc1OS(=O)(=O)c1ccccc1 yielded a displacement of 12.4%. Work on CCCCOC(=O)c1ccc(OC(=O)CCN2C(=O)c3ccccc3C2=O)cc1 yielded a displacement of -1.3%. CN(C)/C=C1\N=C(c2ccc(Cl)cc2Cl)OC1=O showed a displacement of 31.9%. With S=C(c1ccncc1)N1CCOCC1 the displacement was 8.2%. Cc1sc(NC(=O)c2cc(-c3cccs3)nc3ccccc23)c(C(N)=O)c1C gave a displacement of -6.2%. CCOC(=O)N/N=C/c1ccc(F)cc1 gave a displacement of 14.8%. With O=C1c2ccccc2C(=O)c2c1c(Cl)c(Cl)c(Cl)c2N1CCCC1 the displacement was 8%. In the case of O=C(N/N=C/c1ccc(O)c(O)c1O)c1ccc(Cl)cc1Cl, the displacement is reported as -5.7%. In the case of Cc1ccc(CC2C(=O)N(c3cc(C)ccc3C)C(=O)C2C)cc1 (stereo unspecified), the displacement is reported as 6.5%. With COc1ccc(CCNC(=O)C(=O)Nc2ccc(Cl)c(Cl)c2)cc1 the displacement was -9%. Oc1ccc(Br)cc1CN1CCN(Cc2ccco2)CC1 showed a displacement of -8.4%. For O=C(NCCCN1CCOCC1)/C(=C/c1ccc(-c2cccc([N+](=O)[O-])c2)o1)NC(=O)c1ccccc1, the displacement was 10.8%. Molecule Cc1ccc2oc(-c3ccco3)cc(=O)c2c1 has a displacement of 7.3%. Work on COc1ccc(N=Nc2c(N)n[nH]c2N)cc1 yielded a displacement of 6.5%. In the case of COc1cc(/C=C2/NC(=S)NC2=O)ccc1OCc1ccccc1Cl, the displacement is reported as -17%. In the case of C/C(=N\Nc1cc(-n2nc(C)cc2C)nc(C)n1)c1ccc(Cl)c(Cl)c1, the displacement is reported as -5.4%. Work on Cc1ccc(/C(O)=C2\C(=O)C(=O)N(CCCC(=O)O)C2c2ccccc2)cc1 (stereo unspecified) yielded a displacement of 0.5%. COc1ccc(/C=C/C(=O)NCCc2nc3ccccc3[nH]2)cc1Br showed a displacement of -9.6%. With CC(C)(C)c1ccc(S(=O)(=O)Nc2ccccn2)cc1 the displacement was 4%. Molecule Cc1sccc1/C=N/NC(=O)c1ccc(C(C)(C)C)cc1 has a displacement of -7.9%. Molecule Oc1c(/C=N/Nc2cccc3cccnc23)sc2ccccc12 has a displacement of -31.2%. In the case of Cn1cc([N+](=O)[O-])cc1-c1nc2ccccc2n1C, the displacement is reported as 10.9%. Molecule COc1cc([N+](=O)[O-])cc(/C=C2/C(=O)NC(=O)N(c3ccccc3)C2=O)c1O has a displacement of -14.2%. CC(=O)Oc1ccc(C(=O)Nc2cccc(-c3nc4ccccc4o3)c2)cc1 showed a displacement of 0.4%. In the case of Fc1cccc(Cl)c1C=NN1CCN(c2ccc(Cl)cc2)CC1, the displacement is reported as 0.8%. CCOC(=O)c1ccc(N2C(=O)C3C(c4ccccc4C)OC4(C(=O)c5ccccc5C4=O)C3C2=O)cc1 (stereo unspecified) gave a displacement of -7.9%. For NC(=O)C1CCN(C(=O)Nc2ccc(Cl)c(Cl)c2)CC1, the displacement was -2%. With O=C(O)c1nn2c(C(F)(F)F)c3c(nc2c1Cl)-c1ccccc1CC3 the displacement was 1.1%. With C/C(=N/NC(=O)c1ccc(CO)nc1)c1ccc(Br)cc1 the displacement was 49.1%. In the case of O=c1oc2cc([N+](=O)[O-])ccc2nc1/C=C(O)/C=C\c1ccccc1, the displacement is reported as -4.6%. COc1ccc(C2C(C(C)=O)=C(O)C(=O)N2CCN(C)C)cc1 (stereo unspecified) showed a displacement of -5.1%. Work on Cc1c(C(=O)NCCC2=CCCCC2)cccc1[N+](=O)[O-] yielded a displacement of -2.8%. With CSc1ccc(Cl)c(C(=O)Nc2c(C)n(C)n(-c3ccccc3)c2=O)c1 the displacement was -10%. For CC1=[N+](CCO)c2ccccc2C1(C)C, the displacement was 16.8%. With N#C/C(=C\c1ccc(OCc2ccccc2)cc1)c1nc(-c2ccc(Br)cc2)cs1 the displacement was -4.6%. Molecule O=C(N/N=C/c1cc([N+](=O)[O-])ccc1Cl)Nc1ccccc1 has a displacement of -9.2%. O=c1/c(=C/c2ccc(Cl)cc2Cl)sc2nc(-c3ccccc3)nn12 gave a displacement of -9.6%. Cc1ccc(NC(=O)CN(c2ccc(C)c(Cl)c2)S(C)(=O)=O)c(C)c1 was tested, and the displacement was -5.6%. Cc1ccccc1C(=O)Nc1nnc(-c2ccco2)s1 showed a displacement of -1.6%. For O=C(CC1Sc2ccccc2NC1=O)Nc1ccc(I)cc1 (stereo unspecified), the displacement was -1.6%. CCn1c2c(c3cc(F)ccc31)CCCC2=O was tested, and the displacement was 1.8%. CCOC(=O)CCCSc1nnc(CCCN2C(=O)c3cccc4cccc(c34)C2=O)n1-c1ccccc1 was tested, and the displacement was 0.5%. Work on Cc1ccc(/C=C/C(=O)N2CCN(c3ccc([N+](=O)[O-])cc3)CC2)o1 yielded a displacement of 19.4%. For Cc1cccc(NC(=O)c2ccc([N+](=O)[O-])cc2)c1, the displacement was 17.9%. Molecule Oc1ccccc1/C=N/Nc1nc2ccccc2s1 has a displacement of 0.6%.
